Laboratory results reported in the supplement of paper PMC11880418.
Counter-ions that a name gives are not always drawn. Some of the results follow. The data scatter; read single values as rough.

Each compound was assayed on T84 (assay: ALDHbr (CSC) cell proportion score relative to DMSO vehicle (ratio to DMSO); breast (SUM159) / gastric (MKN45) / pancreatic (PANC1) / colon cancer lines; ALDHbr cells have high ALDH activity and are rich in cancer stem cells (CSC); higher = more CSC (ALDHbr) cells remaining). Conditions: 10 µM; 72 h.
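Note: High-content imaging of ALDEFLUOR-stained cells with Hoechst-labelled nuclei in 384-well plates, triplicate wells, scored as Z-score against 0.1% DMSO vehicle, negative meaning fewer ALDHbr cells.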

Compound	ALDHbr
O=c1[nH]oc2c1CCNC2 [THIP Hydrochloride]	1.1
C[C@@H]1CC[C@H]2[C@@H](C)C(=O)O[C@@H]3O[C@@]4(C)CC[C@@H]1[C@]32OO4 [Artemisinin]	0.817
C[N+]1([O-])[C@@H]2C[C@@H](OC(=O)[C@H](CO)c3ccccc3)C[C@H]1[C@@H]1O[C@@H]12 (stereo partly drawn) [Scopolamin-N-oxide hydrobromide]	1.06
